Article PMC2749851
No constants are given. Whether binding was seen depends on the method and setting. Binding seen in cells or lysates may run through a third protein. Some results given as binding are weak or reduced against the parent protein; the word gives no strength. For some of these results: Sequences can lack the tags named with a protein.

Tests used:
[1] = target: Flag-HA-tagged CtBP2 (wild type) (UniProt P56545); assay: co-IP; Flag-HA-tagged CtBP proteins transiently expressed in 293 cells; lysates immunoprecipitated with the Flag antibody; Western blots of endogenous co-factors
[2] = target: Flag-HA-tagged GG-CtBP2 (G189A/G192A) (UniProt P56545); assay: as above
[3] = target: Flag-HA-tagged RR-CtBP2 (R147L/R169L) (UniProt P56545); assay: as above
[4] = target: Flag-HA-tagged CtBP2 (wild type) (UniProt P56545); assay: co-IP; HeLa cells transfected with Flag-HA-tagged CtBP2 or RR-CtBP2 alone or with GFP-ZEB101 (also in increasing amounts) or GFP-Cter; lysates immunoprecipitated with Flag antibody beads; Western blots
[5] = target: Flag-HA-tagged RR-CtBP2 (R147L/R169L) (UniProt P56545); assay: as above

Measured: binding

B1: zinc-finger E-box binding homeobox (ZEB), endogenous (protein, UniProt P37275-1 1-1124)
chain: MADGPRCKRRKQANPRRNNVTNYNTVVETNSDSDDEDKLHIVEEESVTDAADCEGVPEDDLPTDQTVLPGRSSEREGNAKNCWEDDRKEGQEILGPEAQADEAGCTVKDDECESDAENEQNHDPNVEEFLQQQDTAVIFPEAPEEDQRQGTPEASGHDENGTPDAFSQLLTCPYCDRGYKRFTSLKEHIKYRHEKNEDNFSCSLCSYTFAYRTQLERHMTSHKSGRDQRHVTQSGCNRKFKCTECGKAFKYKHHLKEHLRIHSGEKPYECPNCKKRFSHSGSYSSHISSKKCISLIPVNGRPRTGLKTSQCSSPSLSASPGSPTRPQIRQKIENKPLQEQLSVNQIKTEPVDYEFKPIVVASGINCSTPLQNGVFTGGGPLQATSSPQGMVQAVVLPTVGLVSPISINLSDIQNVLKVAVDGNVIRQVLENNQANLASKEQETINASPIQQGGHSVISAISLPLVDQDGTTKIIINYSLEQPSQLQVVPQNLKKENPVATNSCKSEKLPEDLTVKSEKDKSFEGGVNDSTCLLCDDCPGDINALPELKHYDLKQPTQPPPLPAAEAEKPESSVSSATGDGNLSPSQPPLKNLLSLLKAYYALNAQPSAEELSKIADSVNLPLDVVKKWFEKMQAGQISVQSSEPSSPEPGKVNIPAKNNDQPQSANANEPQDSTVNLQSPLKMTNSPVLPVGSTTNGSRSSTPSPSPLNLSSSRNTQGYLYTAEGAQEEPQVEPLDLSLPKQQGELLERSTITSVYQNSVYSVQEEPLNLSCAKKEPQKDSCVTDSEPVVNVIPPSANPINIAIPTVTAQLPTIVAIADQNSVPCLRALAANKQTILIPQVAYTYSTTVSPAVQEPPLKVIQPNGNQDERQDTSSEGVSNVEDQNDSDSTPPKKKMRKTENGMYACDLCDKIFQKSSSLLRHKYEHTGKRPHECGICKKAFKHKHHLIEHMRLHSGEKPYQCDKCGKRFSHSGSYSQHMNHRYSYCKREAEERDSTEQEEAGPEILSNEHVGARASPSQGDSDERESLTREEDEDSEKEEEEEDKEMEELQEEKECEKPQGDEEEEEEEEEVEEEEVEEAENEGEEAKTEGLMKDDRAESQASSLGQKVGESSEQVSEEKTNEA
binds: [1] | [2] | [3] | [4] | [5]

B2: GFP-ZEB101 (domain or fragment, UniProt P37275-1 680-780)
chain: PLKMTNSPVLPVGSTTNGSRSSTPSPSPLNLSSSRNTQGYLYTAEGAQEEPQVEPLDLSLPKQQGELLERSTITSVYQNSVYSVQEEPLNLSCAKKEPQKD
binds: [4] | [5]
